This is one part of the list. Many values rest on one well or one pass, so single values are uncertain.
What was measured:
Assay in all cases: cell count relative to DMSO control; melanoma cells; higher = more viable cells
Settings in all cases: library dose: standard library concentration; 72 h
501Mel = test system: 501Mel
A101D = test system: A101D
A2058 = test system: A2058
A375 = test system: A375
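Also: cells treated in 1,536-well plates, then fixed and DAPI-stained, with nuclei counted from automated high-throughput microscope images.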

| SMILES | cell count (501Mel) [%] | cell count (A101D) [%] | cell count (A2058) [%] | cell count (A375) [%] |
| --- | --- | --- | --- | --- |
| NC1(c2ccc(-c3nc4ccn5c(=O)[nH]nc5c4cc3-c3ccccc3)cc2)CCC1 + CC(C)CCN1c2nc(Nc3cc(F)c(O)c(F)c3)ncc2N(C)C(=O)C1C [BID1870] (first compound 2 µM, partner dose 1 µM) | 55.7 | 57.6 | 63 | 98 |
| NC1(c2ccc(-c3nc4ccn5c(=O)[nH]nc5c4cc3-c3ccccc3)cc2)CCC1 + NC(=O)Nc1cc(-c2cccc(F)c2)sc1C(=O)N[C@H]1CCCNC1 [AZD7762] (first compound 2 µM, partner dose 0.1 µM) |  | 67.1 | 74.1 | 56.6 |
| C=C(c1ccc(C(=O)O)cc1)c1cc2c(cc1C)C(C)(C)CCC2(C)C [Bexarotene] + O=C(O)C(=O)Nc1sc2c(c1C(=O)O)CCNC2 [TCS401] (first compound 10 µM, partner dose 8.33333 µM) | 81.1 | 97.5 | 111 | 153 |
| CCCS(=O)(=O)Nc1ccc(F)c(C(=O)c2c[nH]c3ncc(Cl)cc23)c1F + CN(NC(=O)CC(=O)NN(C)C(=S)c1ccccc1)C(=S)c1ccccc1 [STA4783] (first compound 0.4 µM, partner dose 0.03 µM) |  | 40.8 | 18.6 | 79.8 |
| CS(=O)(=O)c1ccc(C(=O)Nc2ccc(Cl)c(-c3ccccn3)c2)c(Cl)c1 [vismodegib] + CC(=O)O[C@@]12CO[C@@H]1C[C@H](O)[C@@]1(C)C(=O)[C@H](O)C3=C(C)[C@@H](OC(=O)[C@H](O)[C@@H](NC(=O)OC(C)(C)C)c4ccccc4)C[C@@](O)([C@@H](OC(=O)c4ccccc4)[C@H]21)C3(C)C [Docetaxel] (first compound 5 µM, partner dose 0.0005 µM) |  | 49 | 14.8 | 87.7 |
| C=C(c1ccc(C(=O)O)cc1)c1cc2c(cc1C)C(C)(C)CCC2(C)C [Bexarotene] + OCc1c[nH]c2ccccc12 [Indole-3-carbinol] (first compound 10 µM, partner dose 4 µM) |  | 116 | 99.5 | 89.6 |
| CCCS(=O)(=O)Nc1ccc(F)c(C(=O)c2c[nH]c3ncc(Cl)cc23)c1F + O=c1cc(-c2cccc3c2Sc2ccccc2S3)oc(N2CCOCC2)c1 [KU55933] (first compound 0.4 µM, partner dose 5 µM) | 85.5 | 59.1 | 106 | 85.7 |
| NC1(c2ccc(-c3nc4ccn5c(=O)[nH]nc5c4cc3-c3ccccc3)cc2)CCC1 + COc1ccc2c(c1)CCC1C2CCC2(C)C(NCCCCCCN3C(=O)C=CC3=O)CCC12 [U73122] (first compound 2 µM, partner dose 2 µM) | 75.7 | 69.3 | 64.9 | 97.4 |
| CS(=O)(=O)c1ccc(C(=O)Nc2ccc(Cl)c(-c3ccccn3)c2)c(Cl)c1 [vismodegib] + COc1cc2ncnc(Nc3ccc(Oc4ccccc4)cc3)c2cc1OC [SrcI1] (first compound 5 µM, partner dose 10 µM) | 80 | 79.3 | 92.7 | 134 |
| C=C(c1ccc(C(=O)O)cc1)c1cc2c(cc1C)C(C)(C)CCC2(C)C [Bexarotene] + O=C(Nc1ccccc1)c1cc([N+](=O)[O-])ccc1Cl [GW9662] (first compound 10 µM, partner dose 10 µM) | 78.4 | 70.8 | 107 | 113 |
| CCCS(=O)(=O)Nc1ccc(F)c(C(=O)c2c[nH]c3ncc(Cl)cc23)c1F + O=C(O)c1ccc(-c2c[nH]c3ncc(-c4ccccc4)cc23)cc1C1CCCC1 [GSK650394] (first compound 0.4 µM, partner dose 0.8 µM) |  | 64.1 | 96 | 97.5 |
| CS(=O)(=O)c1ccc(C(=O)Nc2ccc(Cl)c(-c3ccccn3)c2)c(Cl)c1 [vismodegib] + Cn1c(Nc2ccc(C(F)(F)F)cc2)nc2cc(Oc3ccnc(-c4ncc(C(F)(F)F)[nH]4)c3)ccc21 [CHIR265] (first compound 5 µM, partner dose 0.4 µM) |  | 63.2 | 66.1 | 106 |
| CS(=O)(=O)c1ccc(C(=O)Nc2ccc(Cl)c(-c3ccccn3)c2)c(Cl)c1 [vismodegib] + CN1CCN(c2ccc3nc(-c4c(N)c5c(F)cccc5[nH]c4=O)[nH]c3c2)CC1 [Dovitinib] (first compound 5 µM, partner dose 0.5 µM) |  | 78.2 | 36.3 | 67.6 |
| CCCS(=O)(=O)Nc1ccc(F)c(C(=O)c2c[nH]c3ncc(Cl)cc23)c1F + Nc1cccc2c1CN(C1CCC(=O)NC1=O)C2=O [lenalidomide] (first compound 0.4 µM, partner dose 5 µM) |  | 85 | 125 | 87.7 |
| CS(=O)(=O)c1ccc(C(=O)Nc2ccc(Cl)c(-c3ccccn3)c2)c(Cl)c1 [vismodegib] + COCC[n+]1c2c(n(Cc3cnccn3)c1C)C(=O)c1ccccc1C2=O [YM155] (first compound 5 µM, partner dose 0.002 µM) |  | 79.3 | 19.7 | 109 |
| NC1(c2ccc(-c3nc4ccn5c(=O)[nH]nc5c4cc3-c3ccccc3)cc2)CCC1 + O=C(O)c1ccc2c(c1)nc(Nc1cccc(Cl)c1)c1ccncc12 [CX4945] (first compound 2 µM, partner dose 2 µM) |  | 75.2 | 73 | 73.2 |
| C=C(c1ccc(C(=O)O)cc1)c1cc2c(cc1C)C(C)(C)CCC2(C)C [Bexarotene] + Cn1nnc2c(C(N)=O)ncn2c1=O [temozolomide] (first compound 10 µM, partner dose 10 µM) |  | 77.4 | 44.3 | 92.4 |
| CN(c1ncccc1CNc1nc(Nc2ccc3c(c2)CC(=O)N3)ncc1C(F)(F)F)S(C)(=O)=O + CCCS(=O)(=O)Nc1ccc(F)c(C(=O)c2c[nH]c3ncc(Cl)cc23)c1F [PLX4720] (first compound 0.4 µM, partner dose 0.4 µM) |  | 72 | 75.3 | 56.6 |
| CN(c1ncccc1CNc1nc(Nc2ccc3c(c2)CC(=O)N3)ncc1C(F)(F)F)S(C)(=O)=O + COc1cc(Nc2ncc(F)c(Nc3ccc4c(n3)NC(=O)C(C)(C)O4)n2)cc(OC)c1OC [Tamatinib] (first compound 0.4 µM, partner dose 2 µM) |  | 27.1 | 56.2 | 81.2 |
| NC1(c2ccc(-c3nc4ccn5c(=O)[nH]nc5c4cc3-c3ccccc3)cc2)CCC1 + CN(NC(=O)CC(=O)NN(C)C(=S)c1ccccc1)C(=S)c1ccccc1 [STA4783] (first compound 2 µM, partner dose 0.03 µM) |  | 60.7 | 11.5 | 137 |
| CCCS(=O)(=O)Nc1ccc(F)c(C(=O)c2c[nH]c3ncc(Cl)cc23)c1F + Cn1nnc2c(C(N)=O)ncn2c1=O [temozolomide] (first compound 0.4 µM, partner dose 10 µM) |  | 74.4 | 62.7 | 87.5 |
| C=C(c1ccc(C(=O)O)cc1)c1cc2c(cc1C)C(C)(C)CCC2(C)C [Bexarotene] + CC(=O)c1c(C)c2cnc(Nc3ccc(N4CCNCC4)cn3)nc2n(C2CCCC2)c1=O [palbociclib] (first compound 10 µM, partner dose 0.2 µM) |  | 72.4 | 104 | 80.8 |
| C=C(c1ccc(C(=O)O)cc1)c1cc2c(cc1C)C(C)(C)CCC2(C)C [Bexarotene] + CC1(C)NC(=O)N(c2ccc([N+](=O)[O-])c(C(F)(F)F)c2)C1=O [nilutamide] (first compound 10 µM, partner dose 5 µM) |  | 114 | 108 | 93.5 |
| CS(=O)(=O)c1ccc(C(=O)Nc2ccc(Cl)c(-c3ccccn3)c2)c(Cl)c1 [vismodegib] + C=CCn1c(=O)c2cnc(Nc3ccc(N4CCN(C)CC4)cc3)nc2n1-c1cccc(C(C)(C)O)n1 [MK1775] (first compound 5 µM, partner dose 0.1 µM) |  | 65.8 | 84.3 | 77.9 |
| CS(=O)(=O)c1ccc(C(=O)Nc2ccc(Cl)c(-c3ccccn3)c2)c(Cl)c1 [vismodegib] + C[C@@H](Oc1cc(-c2cnn(C3CCNCC3)c2)cnc1N)c1c(Cl)ccc(F)c1Cl [Crizotinib] (first compound 5 µM, partner dose 1 µM) |  | 87 | 67.6 | 82.7 |
| CS(=O)(=O)c1ccc(C(=O)Nc2ccc(Cl)c(-c3ccccn3)c2)c(Cl)c1 [vismodegib] + C[C@]1(c2nc3c(C(N)=O)cccc3[nH]2)CCCN1 [Veliparib] (first compound 5 µM, partner dose 7 µM) |  | 155 | 77.5 | 80 |
| CS(=O)(=O)c1ccc(C(=O)Nc2ccc(Cl)c(-c3ccccn3)c2)c(Cl)c1 [vismodegib] + Nc1ccn([C@@H]2O[C@H](CO)[C@@H](O)C2(F)F)c(=O)n1 [gemcitabine] (first compound 5 µM, partner dose 0.002 µM) |  | 95.8 | 69 | 137 |

Source: the supplement of paper PMC4604168 (melanoma cell lines)
